Measured values published in PubChem BioAssay (NCATS).
Inconclusive means that the source gave no clear call. Such entries were picked first, then a sample of the others. Potencies of inconclusive entries are doubtful fits and often do not repeat. Calls of active or inactive are those of the source. Calls follow the shape of the dose curve; as a rule, active = well fitted cell-killing curve with a large enough effect; inconclusive = small, poorly fitted or top-dose-only effect, or effect the other way; inactive = no such curve, though single readings can be large or run the other way.

Key:
[1] = Viability qHTS for spleen associated tyrosine kinase inhibitor (SYKi) naive MV4-11 cells (AID 1963823); also: nearly all actives have a fitted effect of over 40% in size
How it was run: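 CellTiter-Glo luminescence, 10 min room-temperature incubation, gave viability. Cells: naive MV4-11 (500/well), treated 72 hr at 37 C, 5% CO2.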

[2] = Viability qHTS for spleen associated tyrosine kinase inhibitor (SYKi) drug resistant MV4-11 cells (AID 1963824); also: nearly all actives have a fitted effect of over 35% in size
How it was run: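 SYK inhibitor-resistant MV4-11 AML cells, 500 per well, added to predispensed compounds and incubated 72 hr at 37 C, 5% CO2. Viability measured by CellTiter-Glo luminescence after 10 min at room temperature.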
Potency is read from the fitted curve at half-maximal effect; tags tell the direction and shape of the fitted curve.

Question: What does the source list for `CN1CCC[C@@H]1Cc1c[nH]c2ccc(Nc3ncccc3[N+](=O)[O-])cc12`?
Answer: Potency [1]: inconclusive: 16.4 µM [cytotoxic, partial curve]; Potency [2]: inconclusive: 20.6 µM [cytotoxic, partial curve]

Question: What does the source list for `ClCc1cccc(Cl)c1`?
Answer: Potency [1]: inactive; Potency [2]: inactive

Question: With `CC(=O)OC[C@]12C[C@H](OC(=O)CC(C)C)C(C)=C[C@H]1O[C@@H]1[C@H](O)[C@@H](O)[C@@]2(C)[C@]12CO2` as the compound, how does the Potency [1] read?
Answer: inconclusive: 0.0089 µM [cytotoxic, full curve]

Question: And the Potency [2]?
Answer: active: 0.0089 µM

Question: With `C=C1C[C@]2(O)[C@@]3(C)CCC(=O)C(C)(C)C3=C(O)C(=O)[C@@]2(C)[C@@H]2C(=O)O[C@@](C)(C(=O)OC)C(=O)[C@@]12C` as the compound, how does the Potency [1] read?
Answer: inactive

Question: And the Potency [2]?
Answer: inactive

Question: With `CCOC(=O)NC(O)C(Cl)(Cl)Cl` (stereo not given) as the compound, how does the Potency [1] read?
Answer: inactive

Question: What about the Potency [2] of the same compound?
Answer: inactive

Question: For `N#C[C@@H](O[C@@H]1O[C@H](CO[C@@H]2O[C@H](CO)[C@@H](O)[C@H](O)[C@H]2O)[C@@H](O)[C@H](O)[C@H]1O)c1ccccc1`, which Potency [1] is on record?
Answer: inconclusive: 3.17 µM [cytotoxic, single point]

Question: What about the Potency [2] of the same compound?
Answer: inconclusive: 2.52 µM [cytotoxic, single point]

Question: With `O=c1n(Cl)c(=O)n(Cl)c(=O)n1Cl` as the compound, how does the Potency [1] read?
Answer: inconclusive: 0.0012 µM [rising, full curve]

Question: And the Potency [2]?
Answer: inconclusive: 0.0009 µM

Question: With `C[C@@H]1CC2=CC(=O)CC[C@@H]2[C@H]2CC[C@@]3(C)[C@@H](CC[C@]3(C)O)[C@@H]21` as the compound, how does the Potency [1] read?
Answer: inconclusive: 0.0009 µM

Question: And the Potency [2]?
Answer: inconclusive: 0.0009 µM

Question: With `NN=C(N)N` as the compound, how does the Potency [1] read?
Answer: inactive

Question: What about the Potency [2] of the same compound?
Answer: inactive

Question: What does the source list for `COC1CCCC(C)OC(=O)Cc2cc(O)cc(O)c2C(=O)C1` (stereo not given)?
Answer: Potency [1]: inconclusive: 2.55 µM [cytotoxic, full curve]; Potency [2]: inconclusive: 2.27 µM [cytotoxic, full curve]

Question: What does the source list for `Nc1ncnc2c1ncn2[C@@H]1O[C@@H]2COP(O)(=S)O[C@H]2[C@H]1O` (stereo not given in full)?
Answer: viability (% of control) [1]: inactive: 76.1% [at 9.25 µM]; viability, % of control [2]: inactive: 81% [at 9.25 µM]

Question: What does the source list for `CC12CCC3C(CCC4(O)CC(O)CCC34C=O)C1(O)CCC2C1=CC(=O)OC1` (stereo not given)?
Answer: Potency [1]: active: 0.366 µM; Potency [2]: active: 0.231 µM

Question: What does the source list for `N#Cc1cn([C@@H]2O[C@H](CO)[C@H](O)[C@@H]2O)c2ncnc(N)c12`?
Answer: Potency [1]: inconclusive: 0.0058 µM [cytotoxic, full curve]; Potency [2]: inconclusive: 0.0065 µM [cytotoxic, full curve]

Question: Which results are given for `CCCN1CCO[C@@H]2c3cc(O)ccc3OC[C@H]21`?
Answer: Potency [1]: inactive; Potency [2]: inactive

Question: What does the source list for `Nc1ccccc1`?
Answer: Potency [1]: inactive; Potency [2]: inactive

Question: With `CC[C@H]1CN2CC[C@H]1C[C@@H]2[C@@H](O)c1ccnc2ccc(OC)cc12` as the compound, how does the Potency [1] read?
Answer: inactive

Question: And the Potency [2]?
Answer: inactive

Question: Which results are given for `CC1=CC(=O)[C@@H](O)[C@]2(C)C3[C@@H](O)[C@@H]4OC(=O)[C@@H]([C@H]4C)[C@]3(C)C(=O)[C@H](O)[C@@H]12` (stereo not given in full)?
Answer: Potency [1]: inconclusive: 16.1 µM [cytotoxic, single point]; Potency [2]: active: 12.8 µM

Question: Which Potency [1] does the source give for `Cc1c(Cl)cccc1S(=O)(=O)Nc1nc(CC(=O)N2CCN(C)CC2)cs1` here?
Answer: inactive

Question: And the Potency [2]?
Answer: inactive

Question: For `COC1CC(O[C@H]2CC[C@]3(C=O)C4CC[C@]5(C)[C@@H](C6=CC(=O)OC6)CC[C@]5(O)[C@@H]4CC[C@@H]3C2)OC(C)C1O[C@@H]1O[C@H](CO)[C@@H](O[C@@H]2O[C@H](CO)[C@@H](O)[C@H](O)[C@H]2O)[C@H](O)[C@H]1O` (stereo not given in full), which Potency [1] is on record?
Answer: active: 0.174 µM

Question: What about the Potency [2] of the same compound?
Answer: active: 0.123 µM

Question: For `C/C=C(/C)C(=O)O[C@H]1[C@@H]2[C@H](C)C(=O)O[C@@H]2C[C@@H](C)[C@@H]2C=CC(=O)[C@]21C`, which Potency [1] is on record?
Answer: inconclusive: 0.202 µM [cytotoxic, full curve, poor fit]

Question: And the Potency [2]?
Answer: inconclusive: 0.161 µM [cytotoxic, full curve, poor fit]

Question: Which Potency [1] does the source give for `CC(C)=C1CC[C@]23CO[C@H](C2)[C@@](O)(C(=O)O)CCC13` (stereo not given in full) here?
Answer: inactive

Question: And the Potency [2]?
Answer: inconclusive: 13 µM [cytotoxic, partial curve, poor fit]

Question: With `C=C[C@H]1CN2CC[C@H]1C[C@@H]2[C@@H](O)c1ccnc2ccccc12` as the compound, how does the Potency [1] read?
Answer: inconclusive: 29.1 µM [cytotoxic, single point]

Question: What about the Potency [2] of the same compound?
Answer: inconclusive: 4.61 µM [cytotoxic, single point]

Question: Which Potency [1] does the source give for `CC(=O)NCCCOc1ccc(C(=O)N2CCC(N3C(=O)CCc4ccccc43)CC2)cc1` here?
Answer: inconclusive: 18.4 µM [cytotoxic, single point]

Question: What about the Potency [2] of the same compound?
Answer: inconclusive: 23.1 µM [cytotoxic, partial curve, poor fit]

Question: For `Nc1c(Cl)c(Cl)c(Cl)c(Cl)c1Cl`, which Potency [1] is on record?
Answer: inconclusive: 0.0686 µM [cytotoxic, full curve, poor fit]

Question: And the Potency [2]?
Answer: inconclusive: 0.122 µM [cytotoxic, full curve, poor fit]

Question: For `COC(=O)C12C(=O)C(C)(O)C(=O)C1(C)C(C)=CC1C3(C=O)CCC(OC(C)=O)C(C)(C)C3CCC12C` (stereo not given), which Potency [1] is on record?
Answer: inconclusive: 7.96 µM [cytotoxic, single point]

Question: And the Potency [2]?
Answer: inconclusive: 12.6 µM [cytotoxic, single point]

Question: Which Potency [1] does the source give for `Nc1ccc([As](=O)(O)O)cc1` here?
Answer: inconclusive: 0.0009 µM

Question: What about the Potency [2] of the same compound?
Answer: inconclusive: 0.0009 µM

Question: Which results are given for `C=C(C)[C@H]1CN[C@H](C(=O)O)[C@H]1CC(=O)O`?
Answer: Potency [1]: inconclusive: 2.11 µM [rising, full curve, poor fit]; Potency [2]: inconclusive: 0.133 µM [rising, full curve, poor fit]

Question: With `CC[C@H]1CN2CC[C@H]1C[C@H]2[C@H](O)c1ccnc2ccc(OC)cc12` as the compound, how does the Potency [1] read?
Answer: inconclusive: 8.05 µM [cytotoxic, partial curve]

Question: What about the Potency [2] of the same compound?
Answer: inconclusive: 14.3 µM [cytotoxic, partial curve]

Question: With `CC(C)[C@H]1OC(=O)[C@H](Cc2ccccc2)N(C)C(=O)[C@@H](C(C)C)OC(=O)[C@H](Cc2ccccc2)N(C)C(=O)[C@@H](C(C)C)OC(=O)[C@H](Cc2ccccc2)N(C)C1=O` as the compound, how does the Potency [1] read?
Answer: active: 3.85 µM

Question: And the Potency [2]?
Answer: active: 5.44 µM

Question: What does the source list for `COC1CC(O[C@H]2CC[C@]3(C)C4CC[C@]5(C)[C@@H](C6=CC(=O)OC6)[C@@H](OC(C)=O)C[C@]5(O)C4CC[C@@H]3C2)OC(C)C1O` (stereo not given in full)?
Answer: Potency [1]: active: 0.252 µM; Potency [2]: active: 0.178 µM

Question: Which results are given for `CC(Cc1ccccc1)NCCCCl` (stereo not given)?
Answer: Potency [1]: inconclusive: 33.5 µM [cytotoxic, single point]; Potency [2]: inconclusive: 29.9 µM [cytotoxic, single point]

Question: What does the source list for `Cc1cccc(Cc2cnc[nH]2)c1C`?
Answer: Potency [1]: inconclusive: 13.3 µM [cytotoxic, single point]; Potency [2]: inconclusive: 0.0009 µM

Question: With `C#C[C@]1(O)CC[C@H]2[C@@H]3CCC4=CC(=O)CC[C@]4(C)[C@H]3CC[C@@]21C` as the compound, how does the Potency [1] read?
Answer: inconclusive: 26.6 µM [cytotoxic, single point]

Question: What about the Potency [2] of the same compound?
Answer: inconclusive: 18.8 µM [cytotoxic, single point]

Question: Which Potency [1] does the source give for `COc1ccccc1N1CCNCC1` here?
Answer: inactive

Question: And the Potency [2]?
Answer: inactive

Question: For `CNC(C)Cc1ccccc1OC` (stereo not given), which Potency [1] is on record?
Answer: inconclusive: 0.106 µM [cytotoxic, full curve, poor fit]

Question: And the Potency [2]?
Answer: inconclusive: 3.35 µM [cytotoxic, partial curve, poor fit]

Question: Which Potency [1] does the source give for `C=C1[C@@H]2CC[C@@]3(C)[C@H](c4ccoc4)OC(=O)C[C@]13O[C@H]1CC(=O)C(C)(C)[C@H](C(OC(C)=O)C(=O)OC)[C@]12C` (stereo not given in full) here?
Answer: inconclusive: 15.9 µM [cytotoxic, single point]

Question: What about the Potency [2] of the same compound?
Answer: inconclusive: 2.52 µM [cytotoxic, partial curve, poor fit]

Question: Which viability (% of control) [1] does the source give for `COC1CC(OC2CCC3(C)C(=CCC4C3CCC3(C)C(C(C)OC5OC(COC6OC(CO)C(O)C(O)C6O)C(O)C(O)C5O)CCC43O)C2)OC(C)C1OC1OC(C)C(O)C(OC)C1O` (stereo not given) here?
Answer: inactive: 91.8% [at 9.25 µM]

Question: And the viability, % of control [2]?
Answer: inactive: 87.9% [at 9.25 µM]

Question: With `COC1CC(OC2CCC3(C=O)C(CCC4C3CCC3(C)C(C5=CC(=O)OC5)CCC43O)C2)OC(C)C1OC1OC(CO)C(O)C(O)C1O` (stereo not given) as the compound, how does the Potency [1] read?
Answer: active: 0.0862 µM

Question: What about the Potency [2] of the same compound?
Answer: active: 0.0544 µM

Question: With `COP(=S)(OC)Oc1ccc(S(N)(=O)=O)cc1` as the compound, how does the Potency [1] read?
Answer: inactive

Question: What about the Potency [2] of the same compound?
Answer: inconclusive: 0.0531 µM [rising, full curve]

Question: Which results are given for `C[C@H]1CC[C@@H]2[C@@H](C)[C@H]3[C@H](C[C@H]4[C@@H]5CC=C6CC(O[C@@H]7O[C@H](CO)[C@@H](O)[C@H](O[C@@H]8O[C@H](CO)[C@@H](O)[C@H](O)[C@H]8O)[C@@H]7O[C@@H]7O[C@@H](C)[C@H](O)[C@@H](O)[C@H]7O)CC[C@]6(C)[C@H]5CC[C@]34C)N2C1` (stereo not given in full)?
Answer: Potency [1]: inconclusive: 3.9 µM [cytotoxic, single point]; Potency [2]: inconclusive: 3.48 µM [cytotoxic, single point]

Question: For `CC(C)(C)[C@]1(O)C[C@@H]2OC(=O)C[C@@]23C(=O)O[C@@H]2OC(=O)[C@@H](O)[C@]213`, which Potency [1] is on record?
Answer: inactive

Question: And the Potency [2]?
Answer: inactive

Question: For `C=CCN1C[C@H](C)N([C@H](c2ccc(C(=O)N(CC)CC)cc2)c2cccc(OC)c2)C[C@H]1C`, which Potency [1] is on record?
Answer: inactive

Question: What about the Potency [2] of the same compound?
Answer: inconclusive: 11.9 µM [cytotoxic, partial curve, poor fit]

Question: What does the source list for `CCN(CC)CCc1c[nH]c2ccccc12`?
Answer: Potency [1]: inconclusive: 40.4 µM [cytotoxic, partial curve, poor fit]; Potency [2]: inactive

Question: For `COP(=S)(OC)Oc1ccc(S(=O)(=O)N(C)C)cc1`, which Potency [1] is on record?
Answer: inconclusive: 16.8 µM [cytotoxic, partial curve, poor fit]

Question: What about the Potency [2] of the same compound?
Answer: inactive

Question: For `COc1ccc2c3c4n(c2c1)[C@@H](C=C(C)C)OOC(C)(C)C[C@@H]4N1C(=O)[C@@H]2CCCN2C(=O)[C@]1(O)[C@H]3OCC=C(C)C`, which Potency [1] is on record?
Answer: inconclusive: 14.2 µM [cytotoxic, single point]

Question: And the Potency [2]?
Answer: inconclusive: 6.32 µM [cytotoxic, partial curve, poor fit]
